# According to ChEMBL document CHEMBL1201862, “PubChem BioAssay data set” (2004):
#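 Five compound concentrations were applied to cells in 96-well plates for 48 hours; endpoints were derived by simple linear interpolation of the resulting dose-response curve. Here, GI50 denotes the concentration required for 50% inhibition of growth.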 Activity calls are given as the source filed them. No stated cut-off is given here; in the data, active = GI50 up to about 1.1 µM and inactive = higher.
# Assays:
# Assay in all cases: NCI anticancer screen, dose series, 48 h
# [1] = test system: 786-0
# [2] = test system: A498
# [3] = test system: A549
# [4] = test system: ACHN
# [5] = test system: CAKI-1
# [6] = test system: DU-145
# [7] = test system: EKVX
# [8] = test system: HCC 2998
# [9] = test system: HCT-15
# [10] = test system: HL-60
# [11] = test system: HOP-18
# [12] = test system: HOP-62
# [13] = test system: HOP-92
# [14] = test system: Hs-578T
# [15] = test system: IGROV-1
# [16] = test system: K562
# [17] = test system: KM-20L2
# [18] = test system: LOX IMVI
# [19] = test system: LXFL 529
# [20] = test system: MCF7
# [21] = test system: MDA-MB-231
# [22] = test system: MDA-MB-435
# [23] = test system: MOLT-4
# [24] = test system: Malme-3M
# [25] = test system: NCI-H226
# [26] = test system: NCI-H460
# [27] = test system: NCI/ADR-RES
# [28] = test system: OVCAR-3
# [29] = test system: OVCAR-4
# [30] = test system: OVCAR-5
# [31] = test system: OVCAR-8
# [32] = test system: PC-3
# [33] = test system: RPMI-8226
# [34] = test system: SF-268
# [35] = test system: SF-539
# [36] = test system: SK-MEL-28
# [37] = test system: SN12C
# [38] = test system: SNB-75
# [39] = test system: SR
# [40] = test system: SW-620
# [41] = test system: T47D
# [42] = test system: TK-10
# [43] = test system: U-251
# [44] = test system: UACC-257
# [45] = test system: UACC-62
# [46] = test system: UO-31
compound,measurement,setting,value
COc1cc2c(c(OC)c1OC)-c1ccc(OC)c(=O)cc1[C@@H](N)CC2 [CITOSTAL],GI50,[1],active: 0.124 µM
same,GI50,[2],active: 0.0336 µM
same,GI50,[3],active: 0.0274 µM
same,GI50,[4],active: 0.065 µM
same,GI50,[5],active: 0.0735 µM
same,GI50,[6],active: 0.0191 µM
same,GI50,[7],inactive: 1.32 µM
same,GI50,[8],active: 0.0296 µM
same,GI50,[9],0.0449 µM
same,GI50,[10],active: 0.0395 µM
same,GI50,[11],inactive: 53.8 µM
same,GI50,[12],active: 0.034 µM
same,GI50,[13],active: 0.0582 µM
same,GI50,[14],active: 0.0193 µM
same,GI50,[15],active: 0.0559 µM
same,GI50,[16],active: 0.0121 µM
same,GI50,[17],active: 0.0117 µM
same,GI50,[18],active: 0.0306 µM
same,GI50,[19],active: 0.0372 µM
same,GI50,[20],active: 0.0556 µM
same,GI50,[21],active: 0.0179 µM
same,GI50,[22],active: 0.011 µM
same,GI50,[23],active: 0.0317 µM
same,GI50,[24],active: 0.0419 µM
same,GI50,[25],active: 0.1 µM
same,GI50,[26],active: 0.0189 µM
same,GI50,[27],active: 0.206 µM
same,GI50,[28],active: 0.0143 µM
same,GI50,[29],inactive: 11.9 µM
same,GI50,[30],active: 0.431 µM
same,GI50,[31],active: 0.0323 µM
same,GI50,[32],active: 0.0232 µM
same,GI50,[33],active: 0.0993 µM
same,GI50,[34],active: 0.0347 µM
same,GI50,[35],active: 0.0159 µM
same,GI50,[36],inactive: 2.42 µM
same,GI50,[37],active: 0.0454 µM
same,GI50,[38],active: 0.016 µM
same,GI50,[39],inactive: 1.23 µM
same,GI50,[40],active: 0.0166 µM
same,GI50,[41],inactive: > 100 µM
same,GI50,[42],inactive: 2.59 µM
same,GI50,[43],active: 0.0229 µM
same,GI50,[44],active: 0.427 µM
same,GI50,[45],active: 0.0157 µM
same,GI50,[46],active: 0.796 µM
